Measured values: PMC4336329 (PLoS ONE, 2015)
Screen size: about 310,000 compounds; about 14,000 (4.5%) showed an effect of 50% or more. The effect is printed as a negative number. This is one part of the list.

Biological target: human ether-à-go-go-related gene (hERG) potassium channel (human, UniProt Q12809)
Test: primary screen, population patch clamp on CHO cells stably expressing hERG
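Further: peak tail current of the secondary pulse compared with the same well before compound.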

human ether-à-go-go-related gene (hERG) potassium channel, sequence (Q12809 whole entry, looked up): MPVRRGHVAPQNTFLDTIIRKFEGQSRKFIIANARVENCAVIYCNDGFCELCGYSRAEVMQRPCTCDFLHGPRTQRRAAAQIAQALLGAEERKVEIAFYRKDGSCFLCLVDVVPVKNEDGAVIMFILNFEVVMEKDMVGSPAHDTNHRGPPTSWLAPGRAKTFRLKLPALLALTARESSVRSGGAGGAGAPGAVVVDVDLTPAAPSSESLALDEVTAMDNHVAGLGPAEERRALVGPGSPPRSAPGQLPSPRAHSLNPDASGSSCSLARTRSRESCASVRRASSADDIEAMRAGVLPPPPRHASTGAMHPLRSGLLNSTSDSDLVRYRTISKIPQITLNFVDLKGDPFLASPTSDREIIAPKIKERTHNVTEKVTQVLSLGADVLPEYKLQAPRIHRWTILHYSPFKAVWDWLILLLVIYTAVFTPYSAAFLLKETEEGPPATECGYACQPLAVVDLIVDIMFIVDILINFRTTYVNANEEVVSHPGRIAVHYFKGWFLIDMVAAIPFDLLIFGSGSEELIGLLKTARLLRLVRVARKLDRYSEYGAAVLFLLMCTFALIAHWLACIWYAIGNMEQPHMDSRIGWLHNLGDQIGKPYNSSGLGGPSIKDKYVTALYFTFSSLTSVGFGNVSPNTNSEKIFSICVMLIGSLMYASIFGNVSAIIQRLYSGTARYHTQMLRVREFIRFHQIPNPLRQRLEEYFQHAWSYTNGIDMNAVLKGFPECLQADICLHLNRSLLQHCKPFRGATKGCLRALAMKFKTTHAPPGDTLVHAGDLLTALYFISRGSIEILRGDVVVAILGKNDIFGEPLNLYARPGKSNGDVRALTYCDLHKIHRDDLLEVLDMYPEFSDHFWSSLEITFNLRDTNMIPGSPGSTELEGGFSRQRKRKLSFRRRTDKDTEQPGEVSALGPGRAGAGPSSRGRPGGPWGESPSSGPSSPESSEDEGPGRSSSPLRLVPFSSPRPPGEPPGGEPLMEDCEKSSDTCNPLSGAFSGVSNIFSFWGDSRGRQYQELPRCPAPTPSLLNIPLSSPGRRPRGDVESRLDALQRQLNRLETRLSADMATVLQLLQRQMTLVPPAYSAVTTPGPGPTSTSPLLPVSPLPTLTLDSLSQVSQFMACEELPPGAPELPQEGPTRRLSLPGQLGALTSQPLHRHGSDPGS

SMILES	hERG current change (%, negative = inhibition) at 10uM [%]
O=C(NC(=S)NCCc1ccccc1)c1ccccc1F	15.2
Cc1ccc(S(=O)(=O)N(C)C)cc1NC(=O)COC(=O)CCC(=O)c1ccc(F)cc1	-49.1
CCOC(=O)C1CCCN(C(=O)c2cnn3c(C(F)(F)F)cc(-c4ccccc4)nc23)C1 (stereo not drawn)	-26.4
CCOP(=O)(OCC)c1nc(-c2ccc(C)cc2)oc1N1CCOCC1	-2.68
COc1cccc(OC)c1C(=O)Nc1cccc(-c2ccc(N3CCOCC3)nn2)c1	17.8
Cc1cc(C)n2nc(C(=O)N(C)C(c3ccccc3)c3ccccc3)nc2n1	-17.4
COCCOC(=O)/C(=C\c1cc(C(C)(C)C)c(O)c(C(C)(C)C)c1)C(C)=O	-19.7
Cc1cc(S(=O)(=O)N2CCN=C2c2ccccc2)c(C)cc1Cl	-8.15
Cc1cccc(C)c1NC(=O)C(c1ccccc1)N1CCOCC1 (stereo not drawn)	9.4
COc1ccc(NC(=O)Nc2ccccc2C(N)=O)cc1OC	7.59
COc1ccc(S(=O)(=O)N2CCOC2CNC(=O)C(=O)NCCCN2CCOCC2)cc1OC (stereo not drawn)	8.41
COc1ccc(NC(=O)CN2CC(C)OC(C)C2)cc1Cl (stereo not drawn)	29.6
Cc1cn(-c2ccccc2)c(C)c1/C=N\Nc1nc(N2CCOCC2)nc(N2CCOCC2)n1	-7.11
Cc1cccc(Nc2ncnc3c2cnn3Cc2ccccc2)c1	4.63
CC(Cc1cccc(C(F)(F)F)c1)NCCOC(=O)c1ccccc1 (stereo not drawn)	-21.5
CCN(CC)S(=O)(=O)c1ccc(N2CCCC2)c(NC(=O)Cc2c(F)cccc2Cl)c1	10.3
NC(=O)COC(=O)c1c2c(nc3ccccc13)CCC2	9.85
O=C(CN(Cc1ccc(F)cc1)C(=O)CCC(=O)Nc1ccccn1)NCc1ccco1	-25.9
CCCCOC(=O)c1ccc(NC(=O)CSC2=Nc3ccccc3C3CC=NN23)cc1 (stereo not drawn)	15.4
COc1cccc(NC(=O)CN2C(=O)NC(C)(CC(C)C)C2=O)c1 (stereo not drawn)	6.03
O=C(CNc1cccc2ccccc12)N/N=C/C=C/c1ccco1	-2.28
CCOC(=O)C1CCN(S(=O)(=O)c2cc(Cl)c(C)cc2OC)CC1	-35.1
CCOCCCN1C(=O)CN(C2CCC(C)CC2)C(=O)C1c1ccc(C)cc1 (stereo not drawn)	-31.9
COc1ccc(S(=O)(=O)N2CCC3(CC2)CC(=O)c2ccccc2O3)cc1OC	11.6
